Measured values reported in the supplement of paper PMC11417369.
± gives the standard deviation of the averaged measurements. The list shows a part of the results.

The sequences below were run on PfAP2-LT AP2 domain (GST-tagged) (assay: gcPBM binding intensity (ln(normalized median fluorescence intensity)); higher = stronger DNA binding).
Outline: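 In this array assay, P. falciparum DNA-binding domains with a GST tag, expressed in E. coli, were applied for 1 h to primer-extended double-stranded 36-bp intergenic genomic probes and negative controls on an Agilent 4 × 180k array. Bound protein was visualised with Alexa488 anti-GST antibody at 488 nm. Binding intensity is the highest Masliner-normalised natural-log median intensity across replicate spots of either probe orientation.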

Row | Sequence | gcPBM binding intensity (ln)
1 | GGAATATATATACATACACACATATATATATATATA [CACACA_site1666] | 9.88 ± 0.29
2 | ATGCAAATGTGCATCACACACACTAATGGGTATGTA [CACACA_site2893] | 9.41 ± 0.31
3 | AAAAATAATTATTCGTGTACAAAAAAAAAAATATAA [XGTACX_site439] | 8.79 ± 0.51
4 | AAAAAAAAAAAAAAAAGTACAAGCATTGCGTTTTAA [XGTACX_site6075] | 8.56 ± 0.42
5 | GTATATATATACCATTGTACTTTCGTAAAAATATTT [XGTACX_site4846] | 8.8 ± 0.4
6 | AAAAAAAAAAAAAAAACACACATACACGCACGCACA [CACACA_site7569] | 9.35 ± 0.23
7 | AGAAAAAAAAAAAAAAAAATATATATATATATATAT [TGCATGCA_negctrl_site411] | 9.8 ± 0.14
8 | TTTTATTATAATAATTGTACAAAAATTATTTAATAT [XGTACX_site6054] | 8.25 ± 0.4
9 | TTAATTTATTATCTTTGTACACAATTAAAAAAAAAA [XGTACX_site3469] | 8.08 ± 0.45
10 | ATAAATATACATTATACCGACCATGTGGATATTATA [XGTACX_negctrl_site241] | 8.85 ± 0.35
11 | ATTATACATATTATATGTACATATATAAATAAATAA [XGTACX_site7076] | 8.7 ± 0.38
12 | TTATTTTTATATTTTAATTTTAAAAAAATTTTAATT [CACACA_negctrl_site777] | 7.89 ± 0.6
13 | TTTTGGTTTTGTTCTACACACATAAAAAAAAAAAAG [CACACA_site2276] | 8.65 ± 0.33
14 | TTTCTATTTATTAATACATGCAAAATAAAGTAAAGT [TGCATGCA_site209] | 8.69 ± 0.3
15 | ATATATCAATATGGAATATATATATATATATATATA [TGCATGCA_negctrl_site502] | 9.535 ± 0.078
16 | ATATATATAAATAAATGTACATAAATAATATATTAT [XGTACX_site5419] | 8.87 ± 0.45
17 | TATATATATATATATATATTTATGTATTTATTTAAT [TGCATGCA_negctrl_site179] | 9.27 ± 0.39
18 | AGCTGAAAAAAAAGCTTGCACACGTATTTGCTTTAT [CACACA_site1512] | 9.14 ± 0.35
19 | AATAATAAGAATAACGCATGCACATATAATATAGAA [TGCATGCA_site3] | 9.21 ± 0.49
20 | TTTTTTTGTTATATCCTGCACTTCTTAACTATATTA [GTGCAC_site9807] | 8.93 ± 0.53
21 | CATATTATATTCTGCTTACACACATATATATATATA [CACACA_site3059] | 9.395 ± 0.078
22 | GTTTTTTATATAAGGTGGTCAACATTGTAATGTTAA [XGTACX_site3204] | 8.6 ± 0.37
23 | AATATGTAGTAATCAAGTACTAATGTCTTAATTCGG [XGTACX_site308] | 8.82 ± 0.38

Row | Sequence | gcPBM binding intensity (ln)
24 | GTATATATGTATATGTGTACACATATTCTTAACTCA [XGTACX_site309] | 9.02 ± 0.46
25 | ATATAAATTGGCAATAGTACATAAAGGCATAGAAAG [XGTACX_site2674] | 9.03 ± 0.44
26 | AAATTACACATCCATACACACATATTTTTTTTAATT [CACACA_site5242] | 9.11 ± 0.38
27 | AATAATAGAAGCACCCACCCACCACCACCCACACAT [CACACA_negctrl_site1033] | 10.46 ± 0.028
28 | GAGAAACTTGTTTAAACATGCACAAAAAAAAAAAAA [TGCATGCA_site340] | 8.53 ± 0.49
29 | TATATGGAAAATTAAAGTACTAAAGAATAAATAGAA [XGTACX_site8796] | 8.62 ± 0.44
30 | TATAAAATAAATTGTGCACACATATTTATAAATATG [CACACA_site2330] | 9.1 ± 0.42
31 | TATAGATACATATACACACACACACCGACATATATA [CACACA_site9138] | 10.2 ± 0.14
32 | GTAGTTACATATAGGGTGCTCCAATAGTTGACCTCG | 8.7 ± 0.42
33 | TCATAGGTTCAAAAGGGTACATTAATACATACATAT [XGTACX_site2236] | 8.78 ± 0.43
34 | AAATAAAAAAAGGGAACATGCAATATGTACAAATAT [TGCATGCA_site869] | 9.18 ± 0.49
35 | CATATATATTGATATGCACACCTATGTATTGATGTA [CACACA_site8269] | 9.03 ± 0.4
36 | AGCATTTTTCATTTTGCACACATGTTTTATGGGTAT [CACACA_site5839] | 9.52 ± 0.37
37 | TCTTTTTTCTTTTTTTCACACATTATTTTTTAAATA [CACACA_site5197] | 8.66 ± 0.5
38 | ACGATGAATATGTAAAGTACGCAAATGTAACAATAT [XGTACX_site728] | 9.26 ± 0.39
39 | TAAGACAATAAATGCTGTACAATTGAATATCTTGGA [XGTACX_site636] | 8.85 ± 0.41
40 | TTATAAAAATTTAGTTGTACATGTCAAATTATCAAT [XGTACX_site7229] | 8.54 ± 0.42
41 | TATTTTATTATTATTATTTCTTTATAGTGTATTCTA [CACACA_negctrl_site517] | 8.65 ± 0.59
42 | AATATATAGCTAAAAACACACAAATATATACACATA [CACACA_site9203] | 9.13 ± 0.38
43 | TTTTCGTAACTGATTCAACACACAAAAGGGGGAAAA [CACACA_site8517] | 9 ± 0.27
44 | GGATAGGCATAACATAGTACGTACAAATATATATAT [XGTACX_site454] | 9.26 ± 0.47
45 | TATTTTATTATTATTATTAGTATGATTTCTTTATAG [CACACA_negctrl_site550] | 8.52 ± 0.51
